About 550 (1.1%) of roughly 48,000 compounds were called active. Another 4% or so got no clear call; they are omitted. Cut-off read from the data, not from the text of the source: active = potency below about 15 µM; inconclusive = mostly about 16 µM to 33 µM; inactive = weaker than that. The list shows a part of the results.
Target: Lysosomal acid glucosylceramidase (Homo sapiens) (UniProt P04062)
Experiment: Glucocerebrosidase;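 note: the screen sought inhibitors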
Details: purified enzyme, resorufin glucoside fluorescence (screen aimed at inhibitors), 20 min; series mostly up to 77 µM
In short: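 Wild-type enzyme at 0.2 nM final in 50mM citric acid/KH2PO4, 10mM sodium taurocholate, 0.01% tween-20, pH 5.9, with resorufin beta-D-glucopyranoside at 30 uM final. Compounds titrated, 20 min at RT, red fluorescence read; AC50 from titration.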
Potency is the fitted concentration of half-maximal effect.

Chain of UniProt P04062 (P04062 whole entry, looked up): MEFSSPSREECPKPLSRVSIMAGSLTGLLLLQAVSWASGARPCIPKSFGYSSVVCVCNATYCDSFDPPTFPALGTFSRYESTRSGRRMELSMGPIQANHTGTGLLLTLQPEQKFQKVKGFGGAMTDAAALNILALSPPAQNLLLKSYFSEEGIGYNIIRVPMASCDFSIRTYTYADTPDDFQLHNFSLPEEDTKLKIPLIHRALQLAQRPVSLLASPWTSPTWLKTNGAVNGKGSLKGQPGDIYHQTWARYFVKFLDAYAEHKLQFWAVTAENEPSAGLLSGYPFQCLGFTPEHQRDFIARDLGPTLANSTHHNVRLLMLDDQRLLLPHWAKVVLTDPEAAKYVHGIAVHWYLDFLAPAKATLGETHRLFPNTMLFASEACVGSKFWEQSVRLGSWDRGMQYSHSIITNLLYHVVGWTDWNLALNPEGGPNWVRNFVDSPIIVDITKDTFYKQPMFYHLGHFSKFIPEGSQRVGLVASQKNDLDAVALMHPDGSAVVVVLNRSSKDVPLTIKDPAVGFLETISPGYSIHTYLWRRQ

Potency, inactive:
CC(C)OC(=O)CSc1nnc(-c2cnccn2)n1-c1ccccc1 > 76.9 µM, O=S(=O)(c1ccc(Oc2ccccc2)cc1)N1CCOCC1 > 76.9 µM, CCN1CCCC1CNS(=O)(=O)c1cc(Br)cc2c1N(C(=O)C1CC1)CC2 (stereo not given) > 76.9 µM, NC(=O)c1c(NC(=O)CN2CCCC2)sc2c1CCCC2 > 76.9 µM, O=c1n(Cc2ccccc2Cl)c2sc3c(c2c2ncnn12)CCCC3 > 76.9 µM, O=c1oc2ccccc2cc1C1=Nn2c(nnc2-c2cccnc2)SC1 > 76.9 µM, CC(=O)Nc1ccn(Cc2c(F)cccc2Cl)n1 > 76.9 µM, O=C(O)C1CCCCC1C(=O)Nc1cnn(Cc2ccccc2)c1 (stereo not given) > 76.9 µM, CS(=O)(=O)N1CCN(C(=O)C(Sc2ccccc2)c2ccccc2)CC1 (stereo not given) > 76.9 µM, Cc1ccc(S(=O)(=O)C2(C(=O)N3CCCCC3C)CC2)cc1 (stereo not given) > 76.9 µM, CCOC(=O)c1c(C)oc2ccc(O)c(CN3CCCCC3)c12 > 76.9 µM, O=C1NC2=C(C(=O)c3ccccc32)C(c2ccccc2)N1 (stereo not given) > 76.9 µM, COC(=O)C1=C(N)Oc2cc(C)n(C)c(=O)c2C1c1ccc(Cl)c(Cl)c1 (stereo not given) > 76.9 µM, [O-][N+]12CC[N+]([O-])(CC1)c1ccccc12 > 76.9 µM, Cc1c(C(Nc2ccccn2)c2ccc(Cl)cc2)c(=O)n(-c2ccccc2)n1C (stereo not given) > 76.9 µM, COC(=O)C1CCN(c2cc(=O)n(Cc3ccc(F)cc3)c(=O)[nH]2)CC1 > 76.9 µM, O=C(Nc1ccc(C(=O)N2CCOCC2)cc1)c1cccs1 > 76.9 µM, COc1ccc(-c2nc(SC)n(C)c(=O)c2C#N)cc1OC > 76.9 µM, CCN1CCN(Cc2cc(=O)oc3ccc(Cl)cc23)CC1 > 76.9 µM, Cc1ccnc(NC(=O)Nc2cccc(F)c2)c1 > 76.9 µM, c1ccc(-c2nc(NCc3cccnc3)c3oc4ccccc4c3n2)cc1 > 76.9 µM, CC(c1ccco1)N(C(=O)c1ccc(Cl)s1)c1ccccn1 (stereo not given) > 76.9 µM, Cc1ccc(S(=O)(=O)N2CCN(C(=O)N3CCOCC3)C2C)cc1 (stereo not given) > 76.9 µM, CCC(C)(C)NC(=O)c1ccc2c(c1)N(CC(=O)OC)C(=O)C(C)(C)O2 > 76.9 µM, OCCNCC1(O)C2CC3CC(C2)CC1C3 (stereo not given) > 76.9 µM, CC(C)Cn1cnc2c(N)nc3ccccc3c21 > 76.9 µM, C#CCNc1c(C)c(C)nc2ncnn12 > 76.9 µM, Cc1nc2ccc(C(=O)N3CCSCC3)cc2s1 > 76.9 µM, CCOC(=O)C(Cc1ccccc1)NC(=O)Cn1nnc(-c2ccccc2)n1 (stereo not given) > 76.9 µM, O=C(c1ccccc1)N(Cc1cccs1)C1CCS(=O)(=O)C1 (stereo not given) > 76.9 µM, CCOC(=O)c1c(C)c(C(=O)N2CCN(C(=O)c3ccco3)CC2)c(C)n1C > 76.9 µM, CCC(=O)Nc1cccc(NC(=O)CN2CCN(c3ccccc3OC)CC2)c1 > 76.9 µM, COC(=O)NCC(C)OC(=O)Nc1cccc(Cl)c1 (stereo not given) > 76.9 µM, Cc1c(C(=O)N2CCc3ccccc3C2)sc2nc(-c3ccccc3)cn12 > 76.9 µM, O=C(c1cccc(F)c1)N1CCN(c2cccc(Cl)c2)CC1 > 76.9 µM, CCN(c1cccc(C)c1)S(=O)(=O)c1cccc2nsnc12 > 76.9 µM, O=C(CN1CCC(n2nnc3cc(F)ccc32)CC1)NC1CCCCC1 > 76.9 µM, COC(=O)c1ccc(Sc2ccc(C)cc2)c(N)c1 > 76.9 µM, CCOC(=O)c1c(-c2ccc(C)o2)csc1NC(=O)CSc1nnnn1-c1ccccc1 > 76.9 µM, c1ccc2c(SCc3cn4cccnc4n3)ncnc2c1 > 76.9 µM, C=CCn1c(SCC(=O)O)nnc1-c1cccc(Cl)c1 > 76.9 µM, CCOc1ccc(OCC)c(N=c2oc3c(C)ncc(CO)c3cc2C(N)=O)c1 > 76.9 µM, CS(=O)(=O)N1CCc2cc(C(=O)O)ccc21 > 76.9 µM, Cn1c(SCC(=O)Nc2cccc3ccccc23)nc(O)cc1=O > 76.9 µM, O=C(c1cccs1)c1cn(CC(=O)N2CCc3ccccc3C2)c2ccccc12 > 76.9 µM, COCCn1c(=S)[nH]c2cc(OC)c(OC)cc2c1=O > 76.9 µM, CC(C)CC(=O)Nc1nnn(C)n1 > 76.9 µM, NC(=O)c1cc2n(n1)C(C(F)(F)F)CC(c1ccco1)N2 (stereo not given) > 76.9 µM, Cc1nn(C)c(C)c1NC(=O)c1ccnn1C > 76.9 µM, COc1ccc(C(c2nnnn2Cc2cccs2)N2CCN(c3ccccc3F)CC2)cc1 (stereo not given) > 76.9 µM, COc1ccc(C2CC(=O)NC3=C2C(=O)CCC3)cc1Cl (stereo not given) > 76.9 µM, CC(C)Sc1oc(-c2ccco2)nc1S(=O)(=O)c1ccc(F)cc1, Cc1cccc(Cn2c(C(C)O)nc3ccccc32)c1 (stereo not given) > 76.9 µM, COc1ccc(-c2nnn(CC(=O)c3ccc4c(c3)OCCO4)n2)cc1OC > 76.9 µM, CCOc1ccc(C2/C(=C(\O)c3ccc(OC)c(OC)c3)C(=O)C(=O)N2c2cc(C)on2)cc1OC (stereo not given) > 76.9 µM, COCCN(CC(=O)NCc1ccc(F)cc1)C(=O)CCC(=O)Nc1nccs1 > 76.9 µM, CN(C)c1ccc(/C=c2\sc3n(c2=O)CCCN=3)cc1 > 76.9 µM, CCOc1ccc(-c2nnn(CC(=O)c3cc(OC)ccc3OC)n2)cc1 > 76.9 µM, Cn1nc(C(=O)NCc2cccnc2)c2ccccc2c1=O > 76.9 µM, COC(=O)c1sc(NC(=O)CSc2nc3cccnc3n2C2CCCCC2)nc1C > 76.9 µM

Reference: PubChem BioAssay AID360 (National Center for Advancing Translational Sciences (NCATS), 2006)
